Values marked as one replicate rest on one cluster of the flow cell; about a third of the high ones do not repeat.
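Further: ATP exposure 15 min at 22 °C before imaging.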

The subject of the series is ATP. Put plainly: switch fluorescence ratio, 500 uM ATP over buffer (Cy3 cluster intensity, sum of 5 cycles each) (fold (ratio)); higher = stronger signal-on switching upon ATP binding; sequences stand for … in TCGTCGGCAGCGTCAGATGTGTATAAGAGACAGTTTTTTTTTTTTTTTTTTTTTTTTT…TC. To be noted: aptamer strand: ATP DNA aptamer (quencher-CACCTGGGGGAGTATTGCGGAGGAAGG + anchor), 100 nM annealed; ATP concentration: 500 uM; one replicate. An outline of the steps: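 Cy3-labelled switching-strand clusters on a modified Illumina MiSeq flow-cell were annealed to 100 nM quencher-labelled ATP aptamer, imaged in selection buffer, then imaged after 15 min with 500 uM ATP at 22 °C. Five buffer/ATP cycles ran, with NaOH stripping and re-annealing between them. The fluorescence ratio is summed target-cycle over summed buffer-cycle Cy3 intensity per cluster, averaged per switch-domain sequence. Clusters outside 100-1000 RFU were excluded.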
For GCGATCAAAA, the switch fluorescence ratio was 1.02.
GCGCTCATGG: the switch fluorescence ratio amounted to 1.01.
Then CGAATTGAAT, with 1.01.
Take CAGTGCACGC: the switch fluorescence ratio stood at 1.08.
As for GATACTCCGA, the switch fluorescence ratio stood at 1.09.
With TCAATAGGGA, the switch fluorescence ratio worked out at 0.981.
ATCCAGAGAC: the switch fluorescence ratio stood at 1.01.
Then GTGCGTTGTG, with 0.986; and CGTCATCA, with 1.01.
For ACTGGTTGT, the switch fluorescence ratio was determined as 0.996.
On to TTCTGCCGAC, for which the switch fluorescence ratio is 1.06.
On to GATAAGAAAA, for which the switch fluorescence ratio came out at 1.06.
Take ACATGTCAAG: the switch fluorescence ratio stood at 0.936.
Turning to ATGCTATGCA, the switch fluorescence ratio is 0.996.
On to GGGATAAGAT, for which the switch fluorescence ratio was 0.968.
Take ATTGCACCCT: the switch fluorescence ratio stood at 1.04.
In the case of TCAGTCGTAC, the switch fluorescence ratio amounted to 1.04.
Then CGCCGCGGTT, with 1.05.
Take GAAGCGGACG: the switch fluorescence ratio is 0.996.
Turning to GCGGACACGT, the switch fluorescence ratio stood at 0.981.
Take TATGACGTAA: the switch fluorescence ratio was 1.07.
TCCTCGGACT: the switch fluorescence ratio worked out at 1.31.
Then GATCCTGCCC, with 1.12; and AGGAATTTCC, with 0.98.
The result for CGGAATGCA reads 1.15; that for GATCCCGAT, 1.01.
For the sequence TTGGTCATTA, the switch fluorescence ratio is 1.05.
For TTGGCTCTAG, the switch fluorescence ratio was 1.03.
Take ACTTTACAAT: the switch fluorescence ratio is 1.26.
The result for GCATTCCTTA reads 1.03; that for AAGGTGAGAG, 0.951; that for TTTAGCAAAT, 1.16.
For TAAGGCAATC, the switch fluorescence ratio is 2.81.
The result for GCCTGAAGCC reads 1.03; that for CAAATTGATC, 0.991.
Take AGTTGGTTT: the switch fluorescence ratio is 0.995.
Take GGCGGCTCCG: the switch fluorescence ratio is 0.996.
Then GGCGACCA, with 1.03; and AGGTCATTAA, with 0.967.
For the sequence CCTATGACTG, the switch fluorescence ratio was 0.981.
As to TAGGAATACA, the switch fluorescence ratio came to 1.42.
For the sequence ACGCTTGGTT, the switch fluorescence ratio was 0.978.
With GTTTGCTAGG, the switch fluorescence ratio is 1.01.
Take GGGAAAGGTC: the switch fluorescence ratio was 0.959.
As for TTCTGAATCC, the switch fluorescence ratio stood at 0.99.
The result for TGATGAAGGC reads 1.03.
Take CAGCCACAAA: the switch fluorescence ratio amounted to 1.14.
Take GGTGACATGT: the switch fluorescence ratio turned out to be 1.01.
As for AGACTGCCAT, the switch fluorescence ratio was 1.04.
The result for CGACTGAGT reads 0.994; that for TCATAACCTG, 1.05; that for TTTAAGTGCT, 0.96.
As for TCAAGGTAGT, the switch fluorescence ratio was determined as 1.47.
Regarding CTGCCAGTA, the switch fluorescence ratio amounted to 1.02.
In the case of TGAGCCGACT, the switch fluorescence ratio is 1.02.
On to CGAAAGGTAA, for which the switch fluorescence ratio was 0.973.
Turning to AGGGGCATTG, the switch fluorescence ratio amounted to 0.984.
As for ATTCCTATTA, the switch fluorescence ratio stood at 1.02.
Turning to CCGTAAGGGG, the switch fluorescence ratio worked out at 1.01.
In the case of GCTTTTCAGA, the switch fluorescence ratio was determined as 0.962.
The result for CCGTCGGTAT reads 1.33; that for TCTAGTAGTA, 0.999.
As for GGGGGTTCGA, the switch fluorescence ratio worked out at 1.12.
On to GCGTGGCGGT, for which the switch fluorescence ratio amounted to 1.04.
On to GTGAACGCAT, for which the switch fluorescence ratio stood at 2.65.
Then ACCAGTCCGT, with 0.979; and CTCCGGTTGA, with 1.9.

These data come from the supplement of paper PMC10126150.
